The source gives no read counts; variants with many changes may rest on few reads.
B1: LINE1-full (parent)
chain: UACGUAGGUGGUUUUCCCCUGAUAGUGCUAAGGGGGCCUGGAAGUUUGGACUGGGCAGAGCUCAACACAGCGUGGCAAAGUGGCUGUGGCUAGACUGCCUCUCUGGAUUCCUCGUCACUCAGCAGGGCAUCUCUGAGAGAAAUGCC

Variants of: B1
Assay: self-cleavage, relative activity (ratio to wild type); higher = more cleavage; in vitro, sequencing; the parent is a self-cleaving ribozyme
For A57G C61U A117U, the self-cleavage was 0.07.
A57U A136U A140G gave a self-cleavage of 0.02.
With A57G C113A U132A A136U the self-cleavage was 0.95.
For U52C A67G A141G, the self-cleavage was 0.
For A57G G83A U115G, the self-cleavage was 0.44.
With G55U A67U U96C the self-cleavage was 0.03.
For A57U U115A A138G A140G, the self-cleavage was 0.
A57G U73A A77U A140G showed a self-cleavage of 0.18.
For U52A U87C A141G, the self-cleavage was 0.28.
Work on U52C U85C A92G yielded a self-cleavage of 0.
G55U U62C U102C A117G G126A gave a self-cleavage of 0.02.
With A57U A65U G82A the self-cleavage was 0.04.
With C56G C68U U143A the self-cleavage was 0.03.
U52A C56U G74A gave a self-cleavage of 0.12.
Work on A50G U112C U115A yielded a self-cleavage of 1.57.
Variant U52A A67G U87A has a self-cleavage of 0.2.
For A57U U73C U91C A92U U102A A129G U134A, the self-cleavage was 0.
Variant G53C G72A U100C A117C G125U A136G has a self-cleavage of 1.87.
Work on G54U A65G U87C yielded a self-cleavage of 0.02.
U52A C128A U143C showed a self-cleavage of 1.67.
U52C U73C U104C showed a self-cleavage of 0.
For A57U U104C G125U, the self-cleavage was 0.1.
With A57G A107G A117G the self-cleavage was 0.
In the case of G55A A64U G75C U112C, the self-cleavage is reported as 0.04.
With G54A A79G U112A C113U the self-cleavage was 0.83.
C51A A65U U91C showed a self-cleavage of 0.14.
U52A U115C A124G A138G gave a self-cleavage of 1.31.
Variant G53A A57G U73C A138G U143C has a self-cleavage of 1.08.
Work on U52G A77G U134C yielded a self-cleavage of 2.12.
A57U A117G A136G showed a self-cleavage of 0.19.
Work on A57G U87A A136U yielded a self-cleavage of 0.09.
For C51U U112C A138G, the self-cleavage was 1.6.
G53A C66U A79G showed a self-cleavage of 0.05.
In the case of A57U A129G U130A, the self-cleavage is reported as 0.
For A57C C61U A78G A79G A140U, the self-cleavage was 0.13.
A57U U73A A124U U130C gave a self-cleavage of 0.08.
With A57G U119C A141G the self-cleavage was 1.67.
In the case of U52A U62C A77G A121G, the self-cleavage is reported as 0.
With U52C A64U U112C A142G the self-cleavage was 0.36.
U52A U102C U119C A129G gave a self-cleavage of 0.
In the case of A57U A64U G70A U96C U112C, the self-cleavage is reported as 0.
Variant U52C G105A U112C C146U has a self-cleavage of 0.94.
Variant A57U U62C G70A has a self-cleavage of 0.09.
For U52A U62C G72A U143C, the self-cleavage was 0.04.
For A57G A69C U132C, the self-cleavage was 0.
Variant A57G C84U U119C has a self-cleavage of 0.
In the case of U52G A67G U73A U100C A117U U119A, the self-cleavage is reported as 2.04.
G54A A67U U132C gave a self-cleavage of 0.04.
U52A A79G U119C C145A gave a self-cleavage of 0.22.
A57G A64G A79U showed a self-cleavage of 0.39.
With U52C C61U U62C U132C the self-cleavage was 0.
Variant U52C G75C U96C A142G has a self-cleavage of 0.
In the case of A57G A65C A69G, the self-cleavage is reported as 0.
For A57G G74A U96A, the self-cleavage was 0.05.
With A57U A94G A129G the self-cleavage was 0.37.
A57G U85G U91A U134C gave a self-cleavage of 0.
With G53U A59G A138U the self-cleavage was 0.05.
In the case of C56U U85C U87C, the self-cleavage is reported as 0.05.
Work on U52A A138G A142U yielded a self-cleavage of 1.29.
Work on U52A A59G U115C yielded a self-cleavage of 0.97.
A57U G97A A124U A136U gave a self-cleavage of 0.04.
With A57G U62G A65G U115A the self-cleavage was 0.
A57U U62C A124G gave a self-cleavage of 0.08.
A57G U81C U96A showed a self-cleavage of 0.
For G55U A65G G88A U100C U115C A140G, the self-cleavage was 0.03.
For G55U A136G A141G, the self-cleavage was 0.41.
For A57G G83A U132C, the self-cleavage was 0.43.
For U52A A59G U134G, the self-cleavage was 0.14.
A50U A67G U96C A121U showed a self-cleavage of 0.
Variant A57U A77G A94G G97A has a self-cleavage of 0.
Variant C56U A79U U100C U115C has a self-cleavage of 0.96.
With A57U U73A A94G the self-cleavage was 0.
Work on U52A A77G C146U yielded a self-cleavage of 2.42.
For A50U U87C A117U, the self-cleavage was 0.13.
Variant C56G A78G U112A has a self-cleavage of 0.04.
In the case of A57G U100C C113A, the self-cleavage is reported as 0.73.
G53A A79G U130C showed a self-cleavage of 2.21.
For A57U C71G U96C, the self-cleavage was 0.02.
In the case of A57G A65G U112C A138C, the self-cleavage is reported as 0.
C56U A136G A142G showed a self-cleavage of 0.34.
For U52A A129U U132A, the self-cleavage was 1.61.
U52C A57G U87A G88U gave a self-cleavage of 0.04.
A57G G72U U130C showed a self-cleavage of 0.67.
Variant A57U A117G A142G has a self-cleavage of 0.14.

Reference: the RNAGym collection of RNA variant scans (doi:10.7554/elife.90254)
